# Assay results published in publication PMC6919601, “Identification of Plasmodium dipeptidyl aminopeptidase allosteric inhibitors by high throughput screening” (PLoS ONE, 2019).
# Out of some 110,000 compounds screened, about 230 (0.21%) showed an effect of 50% or more. This is one part of the list.
# Target: DPAP1 (Plasmodium falciparum, UniProt Q8IIJ9)
# Experiment: primary screen, percent inhibition; read by cleavage of a fluorogenic dipeptide substrate; higher = more effect of the substance
# Design: species or system P. falciparum D10 trophozoite lysates; single well
# 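Further: 30 min substrate incubation versus DMSO and 10 µM JCP410 controls.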
# Sequence of DPAP1 (Q8IIJ9 whole entry, looked up): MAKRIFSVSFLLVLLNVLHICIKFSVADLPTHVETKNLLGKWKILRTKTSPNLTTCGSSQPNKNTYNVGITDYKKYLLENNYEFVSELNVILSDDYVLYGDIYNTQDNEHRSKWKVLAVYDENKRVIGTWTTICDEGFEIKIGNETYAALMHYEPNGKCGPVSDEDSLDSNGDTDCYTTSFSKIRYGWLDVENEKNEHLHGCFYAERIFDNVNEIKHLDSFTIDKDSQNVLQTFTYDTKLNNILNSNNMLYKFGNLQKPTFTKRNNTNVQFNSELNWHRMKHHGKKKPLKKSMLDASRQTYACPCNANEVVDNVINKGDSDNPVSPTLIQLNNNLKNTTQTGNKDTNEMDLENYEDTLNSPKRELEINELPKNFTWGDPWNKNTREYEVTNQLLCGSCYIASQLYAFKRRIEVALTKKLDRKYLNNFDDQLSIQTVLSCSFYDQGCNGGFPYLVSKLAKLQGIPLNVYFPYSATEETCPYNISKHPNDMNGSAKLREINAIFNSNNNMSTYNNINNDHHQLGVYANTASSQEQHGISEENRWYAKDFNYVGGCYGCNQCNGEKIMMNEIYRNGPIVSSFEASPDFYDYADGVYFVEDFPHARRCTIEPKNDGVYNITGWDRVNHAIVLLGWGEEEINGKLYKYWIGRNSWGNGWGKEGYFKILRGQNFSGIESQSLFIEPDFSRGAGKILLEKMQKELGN
row,SMILES,% Inhibition @ 10 uM
1,CCOc1ccc(/C=C/c2nc(C#N)c(N(C)Cc3ccccc3)o2)cc1,3.27%
2,O=C(Cn1nc(C(F)(F)F)c2c1CCCC2)NCCc1ccccc1,-4.62%
3,CCOC(=O)C1=C(C)N(C2CCCCC2)C(=O)C1(NC(=O)c1cccc(OC)c1)C(F)(F)F (centres unmarked),2.57%
4,O=C(COc1ccc(Cl)cc1Cl)NCCSc1nnnn1-c1ccccc1,0.569%
5,Cc1cc(N2CCC(C(=O)N3CCCCC3C)CC2)n2nc(C)c(-c3ccc(Cl)cc3)c2n1 (centres unmarked),-3.7%
6,OCCN1CCN(CC2CC=CCC2)CC1 (centres unmarked),-5.65%
7,Cc1nn(-c2ccccc2)c2c1C(c1ccccc1OC(C)C)C(C#N)=C(N)O2 (centres unmarked),-1.64%
8,CC(C)(C)C(=O)N(Cc1nc(-c2ccccc2)no1)C1CCCCC1,2.14%
9,CCc1ccc(NC(=O)c2c(Br)cnn2CC)cc1,-5.26%
10,Fc1ccc(N2CCN(CC3CCCCC3)CC2)cc1,-2.34%
11,Cc1ccc(C)c(OCC(=O)NCc2ccc(Cl)cc2)c1,-6.74%
12,Cc1nc(C)c(-c2csc(Nc3ccc(N)cc3)n2)s1,-0.711%
13,O=C(C[n+]1ccccc1)c1ccc(NC(=O)c2ccccc2)cc1,5.18%
14,COc1cc2c(cc1OC)C(COc1ccccc1OC)N(C(=O)c1ccccc1F)CC2 (centres unmarked),4.15%
15,COc1cc([N+](=O)[O-])cc2c(CCN3C(=O)c4ccccc4C3=O)c[nH]c12,3.34%
16,N#CC1=C(N)OC2=C(C(=O)CCC2)C1c1ccco1 (centres unmarked),-3.35%
17,Cc1cc(N2CCN(C)CC2)c2ccccc2n1,5.73%
18,Cc1nc(NC2=NCN(CCCN3CCOCC3)CN2)nc2c(C)cccc12,1.91%
19,COc1ccc(C(=O)N2CCN(C(=O)c3ccncc3)CC2)cc1,0.587%
20,O=C(O)c1cccc(C(=O)c2cccc3ccccc23)c1,-0.872%
21,COc1cc(NC(=O)c2cccc(Cl)c2)c(OC)cc1Cl,-2.6%
22,COc1cc(C2CC(=O)N3C(=C2C#N)SCC3(O)c2ccc(C)cc2)cc(OC)c1O (centres unmarked),-0.0235%
23,Clc1ccc(N2CCCC2)nn1,-4.69%
24,O=C(CNC(=O)Cn1ccc2ccccc2c1=O)NCCCN1CCCCCC1,7.93%
25,Cc1ccc(CCN2CC(C(=O)NC3CCCC(C)C3C)CC2=O)cc1 (centres unmarked),-3.58%
26,COc1ccc(OC)c(CNC(=O)CN2Cc3ccccc3C2=O)c1,-2.17%
27,O=C(Nc1ccc2ccccc2c1)c1ccco1,1.29%
28,Fc1ccc(CN2CCN(Cc3ccccc3)CC2)cc1,-3.71%
29,O=C(CN1CCOCC1)c1ccc(C2CCCC2)cc1,19.7%
